# Reference: PubChem BioAssay (NCATS)
# Values joined by “and” are separate entries in the source; they are usually repeats but may differ in a detail not shown here. Equal values may be shown once. This list was built around the results that the source calls inconclusive (neither active nor inactive); the mix of calls is not that of the screen. For part of these data: Potencies beside an inconclusive call are fits to weak or partial responses and may not hold up. For part of these data: A note “side channel” means that the fit belongs to a control or component signal, not to the main read-out. Active and inactive are the calls of the source. Unless noted, calls come from the whole dose curve; as a rule, active = well fitted curve in the direction sought with a large enough effect; inconclusive = small, poorly fitted or top-dose-only effect, or another doubt; inactive = no such curve, though single readings can be large; an effect the other way counts as inactive or inconclusive.
# Experiments:
# [1] = qHTS Assay for Identification of Small Molecule Agonists for Hypoxia Response Element Signaling Pathway (AID 914; active = well fitted activation curve with a large enough effect in the signal ratio, with a control signal flat, not every such curve was filed as active; inconclusive = small, poorly fitted or top-dose-only effect, or effect the other way, or a change in a side signal; the % refers to the signal ratio; note: potency is the fitted concentration of half-maximal effect); conditions: ME-180 HRE-bla reporter, beta-lactamase ratio, CoCl2, 17 h; activation: stronger effect = higher value
# How it was run: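 ME-180 cells carrying an HRE-driven beta-lactamase reporter were treated with compounds in a titration series plus an EC50 level of CoCl2 for 17 h at 37 degrees Celsius; CCF4 readout as the 460nm/530nm ratio gave AC50 values.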
# [2] = High Content Imaging Cell-Based qHTS for Inhibitors of the mTORC1 Signaling Pathway in MEF Cells (AID 2667); note: potency is the fitted concentration of half-maximal effect
# How it was run: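 Fixed-cell imaging of phospho-S6 (Ser235/236, Alexa-488) after 24 hrs of compound treatment at 37 degree Celsius. Signal was normalized to Hoechst, and thresholds from the highest and lowest wells split cells into % active versus % non-active.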
# [3] = target: Thioredoxin reductase 1, cytoplasmic (Rattus norvegicus) (UniProt O89049); assay: qHTS Assay for Inhibitors of Mammalian Selenoprotein Thioredoxin Reductase 1 (TrxR1) (AID 488773); conditions: Potency: inhibition; note: potency is the fitted concentration of half-maximal effect; nearly all actives have a fitted effect of over 40% in size
# UniProt O89049, sequence (O89049 whole entry, looked up): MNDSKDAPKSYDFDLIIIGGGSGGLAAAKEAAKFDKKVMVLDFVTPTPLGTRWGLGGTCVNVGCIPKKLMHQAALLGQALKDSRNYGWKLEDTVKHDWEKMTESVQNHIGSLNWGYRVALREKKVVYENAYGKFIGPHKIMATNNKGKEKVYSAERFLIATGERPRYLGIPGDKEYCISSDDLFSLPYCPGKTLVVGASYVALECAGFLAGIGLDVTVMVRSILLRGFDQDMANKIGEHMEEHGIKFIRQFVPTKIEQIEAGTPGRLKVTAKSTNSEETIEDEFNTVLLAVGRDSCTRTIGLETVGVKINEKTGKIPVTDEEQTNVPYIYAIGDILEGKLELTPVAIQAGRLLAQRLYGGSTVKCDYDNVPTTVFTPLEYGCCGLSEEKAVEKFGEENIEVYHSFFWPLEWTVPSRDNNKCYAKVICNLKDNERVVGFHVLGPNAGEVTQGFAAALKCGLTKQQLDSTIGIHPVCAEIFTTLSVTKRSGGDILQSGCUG
# How it was run: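 Inhibition is scored from the loss of NADPH fluorescence between first and last reads of an 8-min kinetic run. Selenite (400 uM) was the substrate, added after 15 min compound preincubation at room temperature.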
# [4] = target: M-phase phosphoprotein 8 (Homo sapiens) (UniProt Q99549); assay: qHTS Validation Assay for Inhibitors for MPP8 Chromodomain Interactions with Methylated Histone Tails (AID 488949); conditions: AlphaScreen MPP8 binding to H3K9me3 peptide; activity change, negative = inhibition: at 57.1 µM (top of the series) unless noted; note: potency is the fitted concentration of half-maximal effect; nearly all actives have a fitted effect of over 55% in size
# UniProt Q99549, sequence (Q99549 whole entry, looked up): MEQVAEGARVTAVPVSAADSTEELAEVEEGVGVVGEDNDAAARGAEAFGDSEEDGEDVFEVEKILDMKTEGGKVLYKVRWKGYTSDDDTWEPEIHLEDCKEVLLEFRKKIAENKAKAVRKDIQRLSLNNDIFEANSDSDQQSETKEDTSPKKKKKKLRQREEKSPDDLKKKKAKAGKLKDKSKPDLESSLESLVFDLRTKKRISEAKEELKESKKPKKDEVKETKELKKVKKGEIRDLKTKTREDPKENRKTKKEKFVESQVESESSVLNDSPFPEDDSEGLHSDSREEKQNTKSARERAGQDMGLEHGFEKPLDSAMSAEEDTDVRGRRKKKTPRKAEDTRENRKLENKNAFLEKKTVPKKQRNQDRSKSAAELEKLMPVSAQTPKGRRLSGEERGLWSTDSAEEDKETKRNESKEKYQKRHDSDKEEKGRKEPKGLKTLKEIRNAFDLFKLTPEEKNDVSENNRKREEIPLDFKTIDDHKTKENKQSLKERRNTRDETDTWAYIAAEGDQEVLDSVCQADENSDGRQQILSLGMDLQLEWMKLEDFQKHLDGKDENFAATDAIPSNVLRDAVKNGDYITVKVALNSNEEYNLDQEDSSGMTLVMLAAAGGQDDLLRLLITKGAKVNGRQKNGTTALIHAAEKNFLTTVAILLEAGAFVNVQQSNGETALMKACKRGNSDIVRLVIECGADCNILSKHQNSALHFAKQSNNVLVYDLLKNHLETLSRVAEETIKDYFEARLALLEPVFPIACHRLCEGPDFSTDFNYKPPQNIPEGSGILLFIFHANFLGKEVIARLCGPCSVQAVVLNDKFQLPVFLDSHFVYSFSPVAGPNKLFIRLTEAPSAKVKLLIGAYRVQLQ
# How it was run: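 MPP8 (50 nM) was pre-bound to 50 nM biotinylated H3(1-18)K9me3 peptide in PBS pH 7.4 with 0.01% Tween-20. Compounds were then added for 30 min at room temperature, and complex disruption was read by AlphaScreen with streptavidin donor and nickel-chelate acceptor beads.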
# [5] = Validation screen for small molecules that induce DNA re-replication in SW480 colon adenocarcinoma cells (AID 504364); note: potency is the fitted concentration of half-maximal effect
# How it was run: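 Hoechst-stained SW480 nuclei, imaged at 405 nm excitation after 48 hr compound exposure, were counted for elevated DNA content as the re-replication signal.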
# [6] = target: Peptidyl-prolyl cis-trans isomerase NIMA-interacting 1 (Homo sapiens) (UniProt Q13526); assay: qHTS Validation Assay to Find Inhibitors of Pin1 (AID 504536; active = well fitted inhibition curve with a large enough effect in the polarisation, with a control signal flat, not every such curve was filed as active; inconclusive = small, poorly fitted or top-dose-only effect, or effect the other way; the % refers to the polarisation; note: potency is the fitted concentration of half-maximal effect)
# UniProt Q13526, sequence (Q13526 whole entry, looked up): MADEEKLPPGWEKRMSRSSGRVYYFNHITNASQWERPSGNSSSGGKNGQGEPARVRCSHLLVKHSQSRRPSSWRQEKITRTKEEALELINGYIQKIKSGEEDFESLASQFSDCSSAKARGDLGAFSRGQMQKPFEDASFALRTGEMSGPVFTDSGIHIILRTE
# How it was run: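 Fluorescence polarization competition: compounds (titration) displace HiFluor-488-labeled Pin1-1b peptide from Pin1 (0.3 uM final) in pH 7.5 HEPES buffer with DTT, 10 min at room temperature; %Activity normalized to no-enzyme wells, curves fitted.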
# [7] = target: Tyrosine-protein phosphatase non-receptor type substrate 1 (Homo sapiens) + Leukocyte surface antigen CD47 (Homo sapiens) (UniProt P78324+Q08722); assay: CD47-SIRPalpha protein protein interaction - HTRF assay qHTS validation (AID 1347058; active = well fitted curve in the direction sought with a large enough effect in the signal ratio, not every such curve was filed as active; inconclusive = small, poorly fitted or top-dose-only effect, or effect the other way, or a change in a side signal; inactive = no such curve, though single readings can be large or run the other way; the % refers to the signal ratio; note: potency is the fitted concentration of half-maximal effect; for activity change, negative = inhibition: 0% is about no effect)
# UniProt P78324, sequence (P78324 whole entry, looked up, the tested form may be a part): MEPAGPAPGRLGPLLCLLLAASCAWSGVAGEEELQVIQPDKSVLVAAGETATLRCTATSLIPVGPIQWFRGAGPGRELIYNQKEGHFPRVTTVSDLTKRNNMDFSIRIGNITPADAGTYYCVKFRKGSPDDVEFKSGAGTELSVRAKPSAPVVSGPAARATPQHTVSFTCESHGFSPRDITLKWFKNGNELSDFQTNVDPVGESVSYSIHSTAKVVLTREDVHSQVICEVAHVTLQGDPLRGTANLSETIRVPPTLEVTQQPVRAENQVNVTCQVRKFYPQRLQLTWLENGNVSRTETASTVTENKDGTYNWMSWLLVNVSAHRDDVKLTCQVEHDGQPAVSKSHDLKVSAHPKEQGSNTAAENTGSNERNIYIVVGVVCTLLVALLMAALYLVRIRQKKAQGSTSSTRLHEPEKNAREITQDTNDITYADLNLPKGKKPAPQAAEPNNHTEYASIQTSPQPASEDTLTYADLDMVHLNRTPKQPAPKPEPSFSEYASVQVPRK
# UniProt P78324, sequence (Q08722 whole entry, looked up, the tested form may be a part): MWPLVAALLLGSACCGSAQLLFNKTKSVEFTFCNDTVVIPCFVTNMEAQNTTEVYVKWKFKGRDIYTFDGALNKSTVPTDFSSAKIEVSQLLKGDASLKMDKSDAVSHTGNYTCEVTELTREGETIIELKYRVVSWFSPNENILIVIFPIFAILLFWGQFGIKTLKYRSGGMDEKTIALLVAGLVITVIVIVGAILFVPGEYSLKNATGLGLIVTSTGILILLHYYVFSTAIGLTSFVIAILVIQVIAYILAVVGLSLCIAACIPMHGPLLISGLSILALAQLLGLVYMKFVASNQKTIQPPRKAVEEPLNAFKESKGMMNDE
# How it was run: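 Soluble extracellular domains (6His-CD47, Avi-tag-biotinylated SIRPalpha) in PBS pH 7.4 with 0.05% IGEPAL CA-630. Compounds were preincubated 30 min at RT with CD47 and anti-His-Eu, then SIRPalpha and SAV-XL665 were added. TR-FRET 665/615 ratio.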
# [8] = qHTS to identify inhibitors of the type 1 interferon - major histocompatibility complex class I in skeletal muscle: primary screen against the NCATS LOPAC collection (AID 1347405); conditions: iHSKM muscle cells, IFN-b-induced MHC-I HiBiT luminescence, 24 h; activity change, negative = inhibition: at 45.9 µM (top of the series);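 note: human myoblasts with HiBiT tag on endogenous HLA-B stimulated by IFN-beta; lytic HiBiT luminescence reporting HLA-B protein level; potency is the fitted concentration of half-maximal effect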
# How it was run: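 IFN-beta-stimulated (4 ng/ml) HLA-B HiBiT knock-in myoblasts, compound-treated 24 hrs up to 46 uM final; signal via LgBiT complementation and furimazine luminescence.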
# [9] = target: Calcium and integrin-binding protein 1 (Homo sapiens) (UniProt Q99828); assay: Validation qHTS for Identification of Calcium Integrin Binding protein 1 (CIB1) Competitor (AID 1508618); note: potency is the fitted concentration of half-maximal effect; for activity change, negative = inhibition: % is set by controls: 0 for no effect and ±100 for the full control effect
# UniProt Q99828, sequence (Q99828 whole entry, looked up): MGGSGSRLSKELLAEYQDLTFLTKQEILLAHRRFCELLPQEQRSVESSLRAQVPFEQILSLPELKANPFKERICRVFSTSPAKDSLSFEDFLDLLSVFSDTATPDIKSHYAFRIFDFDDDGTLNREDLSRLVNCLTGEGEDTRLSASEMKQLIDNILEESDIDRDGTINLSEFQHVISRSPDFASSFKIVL
# How it was run: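 CIB1-GST (1 uM final) in 5 mM HEPES pH 7.4, 125 mM NaCl, 5 mM CaCl2, 0.01% Tween20 was preincubated 15 min at room temperature with compound (up to 114 uM), then FITC-alphaIIb peptide (100 nM) added for 15 min; fluorescence polarization read.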
# [10] = qHTS for Activators of Parkin Expression: LOPAC Validation Assay (FLuc Reporter) (AID 720573; note: potency is the fitted concentration of half-maximal effect;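 for activation: 0% = DMSO and 100% = positive control compounds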)
# How it was run: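 Neuronal cell line stably expressing FLuc/NLuc coincidence reporter under the Parkin promoter, 1,500 cells/well, dosed 24 h after seeding in 7-point series for 24 h at 37 C. FLuc luminescence read; normalized to DMSO and positive control (100%).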
# [11] = Nrf2 qHTS screen for inhibitors: Validation (AID 493153; active = well fitted inhibition curve with a large enough effect in the main read-out, with a control signal flat, not every such curve was filed as active; inconclusive = small, poorly fitted or top-dose-only effect, or effect the other way, or a change in a side signal; inactive = no such curve, though single readings can be large or run the other way; note: potency is the fitted concentration of half-maximal effect;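 for activity change, negative = inhibition: A549 cells with ARE-driven firefly luciferase reporter reporting Nrf2 activity; % of control where 0% means no effect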)
# How it was run: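 In this counterscreened reporter format, each well gives two signals: CellTiter-Fluor fluorescence for cytotoxicity and ARE-luciferase luminescence for Nrf2 function. A549 ARE_Fluc cells in 5% FBS OPTI-MEM were exposed to compound titrations for 18-24 h.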
# [12] = qHTS for Activators of Parkin Expression: LOPAC Validation Assay (NLuc Reporter) (AID 720572; note: potency is the fitted concentration of half-maximal effect;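 for activation: 0% = DMSO and 100% = positive control compound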)
# How it was run: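 Cells harboring the Parkin-promoter coincidence reporter were treated for 24 h at seven concentrations. NLuc output was measured sequentially after the FLuc channel and scaled between DMSO and positive control values.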
# [13] = qHTS Assay for Modulators of Human Peripheral Myelin Protein 22 (PMP22) Expression/Activity (AID 1967; active = well fitted curve in the direction sought with a large enough effect in the signal ratio; inconclusive = small, poorly fitted or top-dose-only effect, or effect the other way, or a change in a side signal; inactive = no such curve, though single readings can be large or run the other way; the % refers to the signal ratio; note: potency is the fitted concentration of half-maximal effect;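 for activity change (ratio): 0% = untreated cells and 100% end not stated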); conditions: Cell-based PMP22 reporter, dual-color luciferase ratio, mouse Pmp22 promoter in mouse Schwann cells; activity change (ratio): at 115 µM (top of the series), 0% = compound-free control cells
# How it was run: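 Mouse MSC80 Schwann cells carrying Pmp22 promoter–green click beetle luciferase plus EF-alpha–red luciferase control, dosed 24 h at 37 °C. Dual-filter luminescence, overlap-corrected; %Activity from green/red ratio normalised to untreated cells, concentration-response curves fitted.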
# [14] = qHTS Validation Assay to Find Inhibitors of Chronic Active B-Cell Receptor Signaling (AID 485345; active = well fitted curve in the direction sought with a large enough effect in the main read-out, with a control signal flat, not every such curve was filed as active; inconclusive = small, poorly fitted or top-dose-only effect, or effect the other way, or a change in a side signal; inactive = no such curve, though single readings can be large or run the other way;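 note: 0% = untreated basal cells and 100% = 10 µM MG-132 proteasome inhibitor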); conditions: ABC-DLBCL cells, chronic BCR signaling reporter; activity change: CBG luciferase, at 46.1 µM (top of the series)
# How it was run: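 TMD8 ABC-DLBCL cells with dox-inducible green luciferase–IκBα fusion and red native luciferase; compounds 46 uM–3 nM, 4 h at 37C with doxycycline in 0.5% FBS IMDM. Green/red ratio normalized to basal and 10 uM MG-132.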
# [15] = target: D(1A) dopamine receptor (Homo sapiens) (UniProt P21728); assay: HTS Assay for Allosteric Agonists of the Human D1 Dopamine Receptor: Primary Screen for Potentiators (AID 488982); note: potency is the fitted concentration of half-maximal effect
# UniProt P21728, sequence (P21728 whole entry, looked up): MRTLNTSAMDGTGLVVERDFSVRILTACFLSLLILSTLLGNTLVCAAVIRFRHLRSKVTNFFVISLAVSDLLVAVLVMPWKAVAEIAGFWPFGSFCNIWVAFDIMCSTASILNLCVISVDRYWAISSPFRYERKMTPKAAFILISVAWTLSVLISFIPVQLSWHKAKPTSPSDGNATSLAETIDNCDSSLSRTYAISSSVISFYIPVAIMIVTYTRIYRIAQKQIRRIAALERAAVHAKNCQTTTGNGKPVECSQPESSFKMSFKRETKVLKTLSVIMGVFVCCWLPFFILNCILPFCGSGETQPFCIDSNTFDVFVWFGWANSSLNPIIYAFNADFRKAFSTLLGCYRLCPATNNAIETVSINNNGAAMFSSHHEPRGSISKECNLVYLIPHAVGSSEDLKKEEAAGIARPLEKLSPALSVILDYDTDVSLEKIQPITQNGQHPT
# How it was run: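 Tetracycline-induced HEK293 T-REx cells force-coupled to calcium signalling were incubated overnight at 30 C and dye-loaded at room temperature. Calcium flux over 180 s after compound addition flagged agonists; a further 180 s read after EC20 dopamine flagged potentiators.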
# [16] = target: Transient receptor potential cation channel subfamily V member 1 (Homo sapiens) (UniProt Q8NER1); assay: HTS Assay for Compounds that Act as Enhancers of the Vanilloid Receptor 1 (AID 488979); note: potency is the fitted concentration of half-maximal effect
# UniProt Q8NER1, sequence (Q8NER1 whole entry, looked up): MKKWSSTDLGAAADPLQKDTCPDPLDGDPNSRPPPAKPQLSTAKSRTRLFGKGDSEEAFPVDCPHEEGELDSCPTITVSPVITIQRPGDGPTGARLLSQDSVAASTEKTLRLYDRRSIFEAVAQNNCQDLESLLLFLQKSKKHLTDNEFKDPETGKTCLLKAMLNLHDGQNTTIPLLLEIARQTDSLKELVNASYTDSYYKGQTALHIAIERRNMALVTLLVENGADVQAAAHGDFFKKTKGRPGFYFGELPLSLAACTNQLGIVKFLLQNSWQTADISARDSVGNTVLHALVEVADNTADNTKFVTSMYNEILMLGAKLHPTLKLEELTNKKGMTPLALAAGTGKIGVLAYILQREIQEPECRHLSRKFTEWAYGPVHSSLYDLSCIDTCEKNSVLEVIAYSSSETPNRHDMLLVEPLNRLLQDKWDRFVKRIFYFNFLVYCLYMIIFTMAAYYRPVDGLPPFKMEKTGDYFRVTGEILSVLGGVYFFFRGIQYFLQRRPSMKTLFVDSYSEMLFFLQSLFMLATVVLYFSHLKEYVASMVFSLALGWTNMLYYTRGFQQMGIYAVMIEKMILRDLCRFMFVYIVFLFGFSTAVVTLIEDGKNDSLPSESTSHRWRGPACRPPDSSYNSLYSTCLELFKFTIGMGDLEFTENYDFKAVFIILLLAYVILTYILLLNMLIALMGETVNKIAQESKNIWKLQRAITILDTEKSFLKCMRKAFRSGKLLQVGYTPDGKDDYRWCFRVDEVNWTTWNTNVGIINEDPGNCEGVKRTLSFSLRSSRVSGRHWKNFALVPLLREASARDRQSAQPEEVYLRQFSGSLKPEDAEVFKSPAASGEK
# How it was run: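 TRPV1-expressing cells loaded with Fluo-8 calcium dye; compounds added and calcium influx read kinetically for 3 min (agonist phase), then capsaicin at EC20 added and read 2 min more for enhancement. Fluorescence ex 480/em 520 nm.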
# Papain (Carica papaya) = Papain (Carica papaya) (UniProt P00784); assay: Primary qHTS assay for inhibitors of the protease papain (AID 1645873);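 note: papain turnover of Z-FR-AMC read as the AMC fluorescence gain over 10 min; potency is the fitted concentration of half-maximal effect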
# UniProt P00784, sequence (P00784 whole entry, looked up): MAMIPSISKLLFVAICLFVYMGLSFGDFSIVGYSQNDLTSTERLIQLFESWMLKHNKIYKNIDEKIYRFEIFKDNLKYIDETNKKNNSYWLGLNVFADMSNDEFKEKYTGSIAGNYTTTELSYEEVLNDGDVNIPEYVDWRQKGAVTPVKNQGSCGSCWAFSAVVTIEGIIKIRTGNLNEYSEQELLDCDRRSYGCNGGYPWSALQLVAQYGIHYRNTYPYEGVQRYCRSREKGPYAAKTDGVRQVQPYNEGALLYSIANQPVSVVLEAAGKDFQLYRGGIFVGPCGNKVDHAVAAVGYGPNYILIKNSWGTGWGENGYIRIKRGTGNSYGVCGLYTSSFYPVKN
# [17] = Primary qHTS for inhibitors of La Crosse Virus (LACV) - induced cell death in SH-SY5Y cells (AID 1508616); note: potency is the fitted concentration of half-maximal effect;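 for activity change: top concentration of the series differs between compounds; 0% = infected DMSO wells and 100% = uninfected DMSO wells; higher means more rescue of cells from virus-induced death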
# How it was run: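 Screening measures cell viability in LACV-infected SH-SY5Y cultures. Compound was added before virus (0.01 MOI), and ATP was detected by luminescence 6 days later.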
# [18] = target: Thioredoxin reductase 1, cytoplasmic (Rattus norvegicus) (UniProt O89049); assay: qHTS Assay for Substrates of Mammalian Selenoprotein Thioredoxin Reductase 1 (TrxR1) (AID 488772);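 note: 0% is about no effect; a drop in NADPH fluorescence below the no-compound background marks a TrxR1 substrate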
# How it was run: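 In this dual-purpose format, potential substrates are identified from the first fluorescence read after selenite addition, not from the 8-minute delta. Rat enzyme is preincubated with NADPH and then with compound at ~22 deg C.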
# [19] = Validation of Assay for Modulators of Lamin A Splicing (AID 1459; active = well fitted curve in the direction sought with a large enough effect in the signal ratio; inconclusive = small, poorly fitted or top-dose-only effect, or effect the other way, or a change in a side signal; inactive = no such curve, though single readings can be large or run the other way; the % refers to the signal ratio;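 note: cells exposed to compound for two days before reading; 0% is about no effect; ratio rise marks activators and ratio drop marks inhibitors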); conditions: Lamin A splicing dual RFP/GFP fluorescence reporter; Potency: ratio unless noted; ratio change, both ways: at 9.22 µM unless noted
# How it was run: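 S3 HeLa stably expressing lamin A-EGFP splicing minigene and DsRed2, 600 cells/well in Opti-MEM with 2% FBS, treated 48 h at 37C; laser-scanning cytometry gives GFP/RFP total intensity ratio; ancitabine positive control, 0.5% DMSO vehicle.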
# Tags give direction and shape of the fitted curve or compound fluorescence and quenching.
smiles,measurement,setting,value
N#C/C(=C\c1ccc(O)c(O)c1)C(=O)NCCc1ccccc1,Potency,[1],"inconclusive: 10 µM [inhibitor, partial curve]"
same,Potency,[2],"inconclusive: 18.5 µM [falling, single point]"
same,Potency,[3],"inconclusive: 13.4 µM [inhibitor, partial curve, poor fit]"
same,Potency,[4],active: 11.2 µM and active: 18.9 µM
same,Potency,[5],"inconclusive: 23.1 µM [activator, single point]"
same,Potency,[6],"inconclusive: 9.53 µM [quencher, side channel, partial curve, poor fit]"
same,Potency,[7],"inconclusive: 16.5 µM [side channel, falling, partial curve]"
same,Potency,[8],"inconclusive: 44.7 µM [inhibitor, single point]"
same,Potency,[9],"inconclusive: 7.94 µM [inhibitor, full curve]"
OC[C@H]1O[C@@H](n2cnc3c(Nc4ccccc4)ncnc32)[C@H](O)[C@@H]1O,Potency,[10],"inconclusive: 14.6 µM [activator, partial curve]"
COc1cc2nc(N3CCN(C(=O)OCc4ccccc4)C(C(=O)NC(C)(C)C)C3)nc(N)c2cc1OC (configuration not stated),Potency,[2],"inconclusive: 26.1 µM [falling, single point]"
same,Potency,[5],"inconclusive: 11.6 µM [activator, partial curve]"
same,Potency,[6],inactive
CCCCC#Cc1nc(NC)c2ncn([C@@H]3O[C@H](CO)[C@@H](O)[C@H]3O)c2n1,Potency,[9],inactive
CN1Cc2sccc2C(c2ccc(O)c(O)c2)C1 (configuration not stated),Potency,[11],inactive
same,Potency,[12],inactive
same,Potency,[10],inactive
same,Potency,[7],"inconclusive: 10.4 µM [side channel, falling, partial curve]"
C[C@@H](NCCc1ccc(O)cc1)[C@@H](O)c1ccc(O)cc1,Potency,[13],inactive
O=C(O)CCC(=O)N1CCCC1C(=O)O (configuration not stated),Potency,[13],inactive
same,Potency,[14],inactive
same,Potency,[11],inactive
O=C(O)CCC/C=C\C[C@@H]1[C@@H](/C=C/[C@H](O)C2Cc3ccccc3C2)[C@@H](F)C[C@@H]1O,Potency,[14],inactive
same,Potency,[11],"inconclusive: 32.6 µM [inhibitor, single point]"
same,Potency,[12],"inconclusive: 18.4 µM [activator, partial curve]"
Cc1ccc(C(=O)O[C@H](C(=O)O)[C@@H](OC(=O)c2ccc(C)cc2)C(=O)O)cc1 (tested in a mixture with another compound),Potency,[13],inactive
CC(C)NC[C@H](O)COc1cccc2ccccc12,Potency,[11],inactive
CC1CCN=C(N)S1 (configuration not stated),Potency,[15],"inconclusive: 3.66 µM [activator, partial curve, poor fit]"
same,Potency,[7],inactive
N[C@@H](CS(=O)O)C(=O)O,Potency,[7],inactive
O=C(O)C1=CCNCC1,Potency,[15],"inconclusive: 0.82 µM [activator, partial curve, poor fit]"
CC[C@H](NC(=O)c1c(C)c(-c2ccccc2)nc2ccccc12)c1ccccc1,Potency,[1],"inconclusive: 20 µM [activator, partial curve, poor fit]"
same,Potency,[5],"inconclusive: 32.6 µM [activator, partial curve, poor fit]"
same,Potency,[7],"inconclusive: 23.3 µM [side channel, falling, single point]"
NOCC(=O)O,Potency,[15],"inconclusive: 0.146 µM [activator, partial curve, poor fit]"
O=C(O)[C@@H]1C[C@@H](C(=O)O)N1,Potency,[13],inactive
same,Potency,[6],"inconclusive: 37.9 µM [falling, single point]"
CN(C)CCC(c1ccc(Cl)cc1)c1ccccn1 (configuration not stated),Potency,[11],inactive
CNCCC(Oc1ccccc1C)c1ccccc1 (configuration not stated),Potency,[16],"inconclusive: 10 µM [activator, single point]"
same,Potency,Papain (Carica papaya),"inconclusive: 20 µM [inhibitor, single point]"
COc1ccc2c(c1)c(CC(=O)O)c(C)n2C(=O)c1ccccc1,Potency,[1],"inconclusive: 15.8 µM [inhibitor, partial curve]"
same,Potency,[14],inactive
same,Potency,[11],"inconclusive: 20.6 µM [falling, partial curve]"
same,Potency,[12],"inconclusive: 20.6 µM [activator, single point]"
same,Potency,[17],inactive
NC[C@@H]1O[C@H](c2ccccc2)Cc2c1ccc(O)c2O,Potency,[7],"inconclusive: 1.47 µM [side channel, falling, partial curve]"
Cc1cc(Cn2cnc3c2C[C@@H](C(=O)O)N(C(=O)C(c2ccccc2)c2ccccc2)C3)ccc1N,Potency,[14],inactive
same,Potency,[18],inactive
same,Potency,[9],"inconclusive: 10 µM [inhibitor, full curve, poor fit]"
OC[C@H]1NC[C@@H](O)[C@@H]1O,Potency,[13],inactive
same,Potency,[18],inactive
c1ccc(C2CN3CCSC3=N2)cc1 (configuration not stated),"ratio change, both ways",[19],inactive: -8.2%
same,Potency,[13],"inconclusive: 95.3 µM [rising, single point]"
CCc1c(C(=O)NCCc2ccc(N3CCCCC3)cc2)[nH]c2ccc(Cl)cc12,Potency,[12],inactive
CNC(=O)[C@H]1O[C@@H](n2cnc3c(NCc4cccc(I)c4)ncnc32)[C@H](O)[C@@H]1O,Potency,[11],"inconclusive: 23.1 µM [inhibitor, single point]"
same,Potency,[17],"inconclusive: 10 µM [inhibitor, partial curve, poor fit]"
same,Potency,[9],inactive
